# Laboratory results reported in the supplement of paper PMC11417369.
# ± gives the standard deviation of the averaged measurements. The list shows a part of the results.
# Test system: PfAP2-LT AP2 domain (GST-tagged)
# Experiment: gcPBM binding intensity (ln(normalized median fluorescence intensity)); higher = stronger DNA binding
# Procedure, shortened: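 GST-tagged P. falciparum DNA-binding domains produced in E. coli were incubated for 1 h on an Agilent 4 × 180k array of primer-extended double-stranded 36-bp intergenic genomic probes with negative controls. Binding intensity is the highest Masliner-normalised natural-log median intensity across replicate spots of either probe orientation, with bound protein detected by Alexa488 anti-GST antibody at 488 nm.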
row,Sequence,gcPBM binding intensity (ln)
1,AACATGTTAAAATAAACACACAGCTAAGGTTTTTTT [CACACA_site157],8.9 ± 0.39
2,ATAGTAATGCATAAATATATATTATATATATATATA [XGTACX_negctrl_site576],9.22 ± 0.37
3,CTATTGTTAAATATAATACACACGTTTTTAAAAATA [CACACA_site2183],8.55 ± 0.36
4,GTATATATTTTGTATTCATTTGTCACATATAATAGA [CACACA_negctrl_site506],8.79 ± 0.43
5,CAAACACCCAAACACACACACACATACATACATACA [CACACA_site8044],9.98 ± 0.15
6,TTTTTTTTTTTTTGTGTGCACCTTATTTTTTTGTAT [GTGCAC_site9617],9.43 ± 0.47
7,AAAAAAAAAAAAAATTCACACACATATAAAAAATTA [CACACA_site8140],8.99 ± 0.43
8,TAAATTAAGAATTTTACACACATTAAATAAAAAAAA [CACACA_site3638],8.6 ± 0.54
9,AAATTAGGAAATTGCACACAAAAAAAAACATATTAT [CACACA_site4074],9.16 ± 0.45
10,TTTTTTTATTTTTTTATAAATGTATTTCTATTATTT [CACACA_negctrl_site1562],8.55 ± 0.59
11,ATTATATATACATAATGTACATATATATATTACCTT [XGTACX_site7624],8.88 ± 0.3
12,TATAAAATGACTATATATAATATTAAAAAAAAAAAA [TGCATGCA_negctrl_site387],8.37 ± 0.52
13,AAAATTTCTTTTTTTTGTACATATATAATAATATAT [XGTACX_site7107],8.6 ± 0.39
14,GTATTTTTAAATGACACACACATATATATATATATA [CACACA_site1662],9.74 ± 0.2
15,TTTGAACGAAAATACTCACACATATTTATAAACATT [CACACA_site5182],8.66 ± 0.35
16,ATTTTTCATATATATATATTAATATATATATATTAA [CACACA_negctrl_site1681],8.59 ± 0.37
17,AAAAATATATTATATGTACACACAAAATTAAGGGAT [CACACA_site8384],9.32 ± 0.54
18,TGAATATTTATACATGCACACTAAAATAAAGAATCT [CACACA_site5351],8.92 ± 0.4
19,TATAAATAGGCATATACACACTTTTAATATTCATAA [CACACA_site6123],8.77 ± 0.35
20,ATAACAACATTTGATAAACACACAGAAGTATAAATA [CACACA_site8739],8.94 ± 0.49
21,CAGTTAATGTTGGTACTTTATATAAAAATGATATGA [CACACA_negctrl_site1600],8.54 ± 0.45
22,TCTTTCTCTCTTCAAAGTACATATAATATATACTTC [XGTACX_site7982],8.64 ± 0.45
23,TTATTAATATTGCATGCACACTATATAATAATTGAA [CACACA_site8258],8.87 ± 0.34
24,AAAATATAGTTATCAATATATAATATTTTTTTTTTA [CACACA_negctrl_site459],8.21 ± 0.49
